Structures can show the parent of a compound that is named as a salt. ± gives the standard error. Hit rate of the full screen: of about 1,300 compounds, about 75 (6%) showed an effect of 50% or more. The list shows a part of the results.
System: Trichoderma virens ATCC 9645
Assay: growth yield (OD600) relative to untreated control; higher = less growth inhibition
Conditions: compound concentration: 100 uM
In short: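 A biocide at 200 ng ml^−1 was co-applied to some wells, and library compounds were present in all test wells at 100 μM final. The wells held 100 μl of Trichoderma virens ATCC 9645 spores at 15,000 spores ml^−1 in potato dextrose broth, grown at 30 °C in 96-well plates, with OD600 read at 40 h and 72 h. Results are relative growth against the control without either agent, averaged across duplicate screens.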

Cc1c(C)c2c(c(C)c1O)CCC(C)(C(=O)O)O2 (stereo not drawn) [Trolox]
growth yield (40 h): 95.8 ± 1.8% | growth yield (72 h): 95.75 ± 0.94%

CC(=O)N[C@@H](CS)C(=O)O [Acetylcysteine]
growth yield (40 h): 95.78 ± 0.16% | growth yield (72 h): 96.91 ± 0.21%

CC(=O)O[C@H]1C[C@@]2(C)[C@@H](C[C@@H](O)[C@H]3[C@@]4(C)CC[C@@H](O)[C@@H](C)[C@@H]4CC[C@@]32C)/C1=C(\CCC=C(C)C)C(=O)O [Fusidic acid sodium salt]
growth yield (40 h): 110.4 ± 0.48% | growth yield (72 h): 113.6 ± 0.94%

CN(C)CCn1nnnc1SCC1=C(C(=O)O)N2C(=O)[C@@H](NC(=O)Cc3csc(N)n3)[C@H]2SC1 [Cefotiam hydrochloride]
growth yield (40 h): 102 ± 1.4% | growth yield (72 h): 102.2 ± 0.73%

NCCCC(O)(P(=O)(O)O)P(=O)(O)O [Alendronate sodium]
growth yield (40 h): 103 ± 1.9% | growth yield (72 h): 104 ± 3.4%

Nc1ccc(S(=O)(=O)Nc2cnc3ccccc3n2)cc1 [Sulfaquinoxaline sodium salt]
growth yield (40 h): 105 ± 5.4% | growth yield (72 h): 108 ± 5.5%

CNC[C@H](O)[C@@H](O)[C@H](O)[C@H](O)CO [Meglumine]
growth yield (40 h): 100 ± 5.2% | growth yield (72 h): 95.8 ± 2.8%

C[C@H]1NC(=O)NC1=O [Methylhydantoin-5-(D)]
growth yield (40 h): 95.3 ± 0.95% | growth yield (72 h): 95 ± 2.1%

Cc1ccnc(NS(=O)(=O)c2ccc(N)cc2)n1 [Sulfamerazine]
growth yield (40 h): 94.4 ± 1.3% | growth yield (72 h): 94.7 ± 0.1%

NC(=O)OCC(COC(N)=O)c1ccccc1 [Felbamate]
growth yield (40 h): 102 ± 4% | growth yield (72 h): 101 ± 2.6%

N=C(N)NCc1cccc(I)c1 [Iobenguane sulfate]
growth yield (40 h): 105 ± 1.9% | growth yield (72 h): 106 ± 1.1%

CC(C)n1c(/C=C/C(O)CC(O)CC(=O)O)c(-c2ccc(F)cc2)c2ccccc21 (stereo not drawn) [Fluvastatin sodium salt]
growth yield (40 h): 1.91 ± 1.3% | growth yield (72 h): 1.78 ± 0.94%

CCCCNc1cc(C(=O)O)cc(S(N)(=O)=O)c1Oc1ccccc1 [Bumetanide]
growth yield (40 h): 98.2 ± 2.2% | growth yield (72 h): 104 ± 1.8%

CNC(=O)c1c(I)c(C(=O)NCC(=O)Nc2c(I)c(C(=O)O)c(I)c(C(=O)NCCO)c2I)c(I)c(N(C)C(C)=O)c1I [Ioxaglic acid]
growth yield (40 h): 105 ± 5.2% | growth yield (72 h): 101 ± 2.2%

CC(=O)Oc1ccccc1C(=O)Oc1ccccc1C(=O)O [Acetylsalicylsalicylic acid]
growth yield (40 h): 95.3 ± 4.5% | growth yield (72 h): 88.8 ± 4.9%

Nc1ncnc2c1ncn2C1OC(COP(=O)(O)O)C(O)C1O (stereo not drawn) [Adenosine 5'-monophosphate monohydrate]
growth yield (40 h): 106 ± 1.3% | growth yield (72 h): 107 ± 3.6%

C[C@@H]1C[C@H]2[C@@H]3CCC4=CC(=O)C=C[C@]4(C)[C@@]3(Cl)[C@@H](O)C[C@]2(C)[C@@]1(OC(=O)c1ccco1)C(=O)CCl [Mometasone furoate]
growth yield (40 h): 96.6 ± 1.3% | growth yield (72 h): 95.86 ± 0.21%

CN1CCCN(C(c2ccccc2)c2ccc(Cl)cc2)CC1 (stereo not drawn) [Homochlorcyclizine dihydrochloride]
growth yield (40 h): 86.4% | growth yield (72 h): 96.8 ± 0.73%

CCOc1ccc2nc(S(N)(=O)=O)sc2c1 [Ethoxzolamide]
growth yield (40 h): 113 ± 14% | growth yield (72 h): 110 ± 11%

CCCCc1ccc2[nH]c(NC(=O)OC)nc2c1 [Parbendazole]
growth yield (40 h): 53.4 ± 1.9% | growth yield (72 h): 95.9 ± 10%

C/C(=C\C(=O)OCCCCCCCCC(=O)O)C[C@@H]1OC[C@H](C[C@@H]2O[C@H]2[C@@H](C)[C@H](C)O)[C@@H](O)[C@H]1O [Mupirocin]
growth yield (40 h): 6.04 ± 2.9% | growth yield (72 h): 39.5 ± 8.5%

CN/C(=N\CCSCc1nc[nH]c1C)NC#N [Cimetidine]
growth yield (40 h): 103 ± 4.6% | growth yield (72 h): 102 ± 3.8%

CCc1cccc(CC)c1NC(=O)CN(CC(=O)O)CC(=O)O [Etifenin]
growth yield (40 h): 100.2 ± 0.48% | growth yield (72 h): 99 ± 2.3%

O=C(O)c1cc(/N=N/c2ccc(S(=O)(=O)Nc3ccccn3)cc2)ccc1O [Sulfasalazine]
growth yield (40 h): 109 ± 2.9% | growth yield (72 h): 111.4 ± 0.21%

CC(N)CCCC(C)(C)O (stereo not drawn) [Heptaminol hydrochloride]
growth yield (40 h): 101 ± 3.6% | growth yield (72 h): 101 ± 2%

CN1CCCN=C1/C=C/c1cccc(O)c1 [Oxantel pamoate]
growth yield (40 h): 93.4 ± 0.64% | growth yield (72 h): 99.8 ± 1.1%

C[C@@H](O[C@H]1OCCN(Cc2n[nH]c(=O)[nH]2)[C@H]1c1ccc(F)cc1)c1cc(C(F)(F)F)cc(C(F)(F)F)c1 [Aprepitant]
growth yield (40 h): 106% | growth yield (72 h): 98.06 ± 0.32%

CC=CC1=C(C(=O)O)N2C(=O)[C@@H](NC(=O)[C@H](N)c3ccc(O)cc3)[C@H]2SC1 [Cefprozil]
growth yield (40 h): 100 ± 1.4% | growth yield (72 h): 92.7 ± 3.1%

Cc1cc2c(s1)Nc1ccccc1N=C2N1CCN(C)CC1 [Olanzapine]
growth yield (40 h): 99.1 ± 1.6% | growth yield (72 h): 99.9 ± 2%

Cc1c(O)c(=O)n(-c2ccccc2)n1C [Antipyrine, 4-hydroxy]
growth yield (40 h): 94 ± 3.2% | growth yield (72 h): 89.04 ± 0.52%

CC(C)OC(=O)C(C)(C)Oc1ccc(C(=O)c2ccc(Cl)cc2)cc1 [Fenofibrate]
growth yield (40 h): 86.6 ± 2.1% | growth yield (72 h): 91.9 ± 4.8%

NC(=O)c1cnccn1 [Pyrazinamide]
growth yield (40 h): 102 ± 1.3% | growth yield (72 h): 103.5 ± 0.32%

O=C(CCNNC(=O)c1ccncc1)NCc1ccccc1 [Nialamide]
growth yield (40 h): 111.7 ± 0.48% | growth yield (72 h): 105.8 ± 0.94%

N/C(=N\C(=O)c1nc(Cl)c(N)nc1N)NCc1ccccc1 [Benzamil hydrochloride]
growth yield (40 h): 94.2 ± 3% | growth yield (72 h): 96.3 ± 4%

CSc1nc2cc(Cl)c(Oc3cccc(Cl)c3Cl)cc2[nH]1 [Triclabendazole]
growth yield (40 h): 78.2 ± 6% | growth yield (72 h): 104 ± 5.3%

Cc1nc2ccccn2c(=O)c1CCN1CCC(C(=O)c2ccc(F)cc2)CC1 [Pirenperone]
growth yield (40 h): 106 ± 1.6% | growth yield (72 h): 104 ± 2.2%

COc1cccc2c1C(=O)c1c(O)c3c(c(O)c1C2=O)C[C@@](O)(C(=O)CO)C[C@@H]3O[C@H]1C[C@H](N)[C@@H](O)[C@H](C)O1 [Epirubicin hydrochloride]
growth yield (40 h): 109 ± 14% | growth yield (72 h): 106 ± 13%

CCCN(CCC)CCc1cccc2c1CC(=O)N2 [Ropinirole hydrochloride]
growth yield (40 h): 99.43 ± 0.64% | growth yield (72 h): 103 ± 1.1%

CC(=O)O[C@H]1C(=O)[C@@]2(C)[C@H]([C@H](OC(=O)c3ccccc3)[C@]3(O)C[C@H](OC(=O)[C@H](O)[C@@H](NC(=O)c4ccccc4)c4ccccc4)C(C)=C1C3(C)C)[C@]1(OC(C)=O)CO[C@@H]1C[C@@H]2O [Paclitaxel]
growth yield (40 h): 104 ± 4.6% | growth yield (72 h): 103 ± 2.3%

O=C(O)c1ccccc1OP(=O)(O)O [Fosfosal]
growth yield (40 h): 89 ± 1.9% | growth yield (72 h): 91.6 ± 2.6%

C/C=C(/C(=C/C)c1ccc(O)cc1)c1ccc(O)cc1 [Dienestrol]
growth yield (40 h): 91.2 ± 7.9% | growth yield (72 h): 82.5 ± 6.6%

Cc1ncc([N+](=O)[O-])n1CC(C)O (stereo not drawn) [Secnidazole]
growth yield (40 h): 99.9 ± 3.3% | growth yield (72 h): 98.2 ± 2.5%

COc1ccc2cc([C@H](C)C(=O)O)ccc2c1 [(S)-Naproxen]
growth yield (40 h): 72.6 ± 0.79% | growth yield (72 h): 83.2 ± 2.8%

Nc1cc(N2CCCCC2)nc(N)[n+]1[O-] [Minoxidil]
growth yield (40 h): 104 ± 3.2% | growth yield (72 h): 102 ± 1.3%
